Reference: US3954972A, “Antibiotic A-26771 factor” (Eli Lilly and Company, priority 1975, dated 1976)

How the values were obtained:
Mycobacterium avium = experiment: disc-plate assay, Mycobacterium avium; conditions: for zone of inhibition at 1000 µg/mL: Mycobacterium avium, read-out: inhibition-zone diameter
Pseudomonas solanacearum = experiment: microbe, parasite or virus in culture; conditions: Ralstonia solanacearum, read-out: inhibition-zone diameter
Candida albicans = experiment: microbe, parasite or virus in culture
[1] = for solubility in polar organic solvents: such as ethyl acetate, ethanol, methanol, chloroform
Bacillus subtilis = experiment: microbe, parasite or virus in culture
Fusarium moniliforme = experiment: microbe, parasite or virus in culture
[2] = system: Trichophyton mentagrophytes; experiment: microbe, parasite or virus in culture
Staphylococcus aureus = experiment: microbe, parasite or virus in culture; conditions: read-out: inhibition-zone diameter
Sarcina lutea = experiment: microbe, parasite or virus in culture; conditions: Micrococcus luteus, read-out: inhibition-zone diameter
Serratia marcescens = experiment: microbe, parasite or virus in culture; conditions: read-out: inhibition-zone diameter
[3] = system: Saccharomyces pastorianum; experiment: microbe, parasite or virus in culture; conditions: read-out: inhibition-zone diameter
Neurospora crassa = experiment: microbe, parasite or virus in culture; conditions: read-out: inhibition-zone diameter
[4] = Trichophyton mentagrophytes, read-out: inhibition-zone diameter

In the case of `CN1C(=O)C2(Cc3ccccc3)SSC1(CO)C(=O)N2C` (single isomer, unassigned) [Factor A, 3-benzyl-6-(hydroxymethyl)-1,4-dimethyl-3,6-epidithio-2,5-piperazinedione], the inhibition-zone diameter (Mycobacterium avium; 0.1 mg./ml.) is reported as “tr (trace)”, the zone of inhibition at 1000 µg/mL (Pseudomonas solanacearum) is reported as 13 mm and the inhibition-zone diameter (Candida albicans; 0.1 mg./ml.) is reported as “tr (trace)”. The “solubility in polar organic solvents” value [1] was “soluble” and the solubility in water [1] was “relatively insoluble”.
In the case of `CC1CCCCCCCCCC(OC(=O)CCC(=O)O)C(=O)/C=C/C(=O)O1` (centres unmarked) [Factor B, mono(16-methyl-2,5-dioxooxacyclohexadec-3-en-6-yl) succinate], the zone of inhibition at 1000 µg/mL (Mycobacterium avium) is reported as 9 mm, the inhibition-zone diameter (Bacillus subtilis; 0.1 mg./ml.) is reported as “tr (trace)” and the inhibition-zone diameter (Candida albicans; 1.0 mg./ml.) is reported as “tr (trace)”. The inhibition-zone diameter (Fusarium moniliforme; 1.0 mg./ml.) was “tr (trace)”, the inhibition-zone diameter ([2]; 0.1 mg./ml.) was “tr (trace)” and the “solubility in polar organic solvents” value [1] was “slightly soluble”. The solubility in water [1] was “relatively insoluble”.
Work on `CN1C(=O)C2(Cc3ccccc3)SSSSC1(CO)C(=O)N2C` (centres unmarked) [Factor C, 3-benzyl-6-(hydroxymethyl)-1,4-dimethyl-3,6-epitetrathio-2,5-piperazinedione] yielded a zone of inhibition at 1000 µg/mL (Staphylococcus aureus) of 20 mm, a zone of inhibition at 1000 µg/mL (Mycobacterium avium) of 11 mm and a zone of inhibition at 1000 µg/mL (Bacillus subtilis; Bacillus subtilis, read-out: inhibition-zone diameter) of 20 mm. The zone of inhibition at 100 µg/mL (Sarcina lutea) was 14 mm, the zone of inhibition at 1000 µg/mL (Sarcina lutea) was 26 mm and the zone of inhibition at 1000 µg/mL (Serratia marcescens) was 14 mm. The zone of inhibition at 1000 µg/mL [3] was 25 mm, the zone of inhibition at 1000 µg/mL (Neurospora crassa) was 22 mm and the zone of inhibition at 1000 µg/mL (Candida albicans; Candida albicans, read-out: inhibition-zone diameter) was 23 mm. For the same molecule, the zone of inhibition at 1000 µg/mL (Fusarium moniliforme; Fusarium verticillioides, read-out: inhibition-zone diameter) was 8 mm, the zone of inhibition at 100 µg/mL [2, 4] was 12 mm and the zone of inhibition at 1000 µg/mL [2, 4] was 19 mm. For the same molecule, the “solubility in polar organic solvents” value [1] was “soluble” and the solubility in water [1] was “relatively insoluble”.
